Data on 36 compounds can be found in patent US11685745B2, “Substituted benzoxazole and benzofuran compounds as PDE7 inhibitors” (Dart NeuroScience, LLC, priority 2017, dated 2023).

This test concerns the target N-terminal truncated recombinant human PDE7B enzyme (Homo sapiens (Human), UniProt Q9NP56). The test can be described thus: biochemical.
One may read the IC50 as the concentration that inhibits the measured activity by half. Consider `COC(=O)c1nc2cc(Cl)c3c(c2o1)C1(CCCCC1)NC(=O)N3` [Example 1, Methyl 5′-chloro-7′-oxo-7′,8′-dihydro-6′H-spiro[cyclohexane-1,9′-oxazolo[5,4-f]quinazoline]-2′-carboxylate], for which the IC50 lay within 100 to 1000 nM. The same measure for `O=C1Nc2c(Cl)cc3nc(C(=O)O)oc3c2C2(CCCCC2)N1` [Example 2, 5′-Chloro-7′-oxo-7′,8′-dihydro-6′H-spiro[cyclohexane-1,9′-oxazolo[5,4-f]quinazoline]-2′-carboxylic acid]: 10 to 100 nM; for `O=C1Nc2c(Cl)cc3nc(CCl)oc3c2C2(CCCCC2)N1` [Example 3, 5′-Chloro-2′-(chloromethyl)-6′H-spiro[cyclohexane-1,9′-oxazolo[5,4-f]quinazolin]-7′(8′H)-one]: 100 to 1000 nM; for `COCCNCc1nc2cc(Cl)c3c(c2o1)C1(CCCCC1)NC(=O)N3` [Example 4, 5′-Chloro-2′-(((2-methoxyethyl)amino)methyl)-6′H-spiro[cyclohexane-1,9′-oxazolo[5,4-f]quinazolin]-7′(8′H)-one]: 10 to 100 nM. On to `COCCOCc1nc2cc(Cl)c3c(c2o1)C1(CCCCC1)NC(=O)N3` [Example 5, 5′-Chloro-2′-((2-methoxyethoxy)methyl)-6′H-spiro[cyclohexane-1,9′-oxazolo[5,4-f]quinazolin]-7′(8′H)-one], for which the IC50 fell in the range of 10 to 100 nM. Then `CCOC(=O)Cc1nc2cc(Cl)c3c(c2o1)C1(CCCCC1)NC(=O)N3` [Example 6, Ethyl 2-(5′-chloro-7′-oxo-7′,8′-dihydro-6′H-spiro[cyclohexane-1,9′-oxazolo[5,4-f]quinazolin]-2′-yl)acetate], with 10 to 100 nM.

Take `COC1CCN(C(=O)c2nc3cc(Cl)c4c(c3o2)C2(CCCCC2)NC(=O)N4)CC1` [Example 7, 5′-Chloro-2′-(4-methoxypiperidine-1-carbonyl)-6′H-spiro[cyclohexane-1,9′-oxazolo[5,4-f]quinazolin]-7′(8′H)-one]: the half-inhibitory concentration (IC50) is 10 to 100 nM.

For `COC1CN(Cc2nc3cc(F)c4c(c3o2)C2(CCCCC2)NC(=O)N4)C1` [Example 8, 5′-Fluoro-2′-((3-methoxyazetidin-1-yl)methyl)-6′H-spiro[cyclohexane-1,9′-oxazolo[5,4-f]quinazolin]-7′(8′H)-one], the IC50 was in the range of 100 to 1000 nM.

Take `COC(=O)c1nc2cc(Cl)c3c(c2o1)C1(CCC(F)(F)CC1)NC(=O)N3` [Example 9, Methyl 5′-chloro-4,4-difluoro-7′-oxo-7′,8′-dihydro-6′H-spiro[cyclohexane-1,9′-oxazolo[5,4-f]quinazoline]-2′-carboxylate]: the IC50 is 100 to 1000 nM.

Turning to `CN1CCN(Cc2nc3cc(Cl)c4c(c3o2)C2(CCC(F)(F)CC2)NC(=O)N4)CC1` [Example 10, 5′-Chloro-4,4-difluoro-2′-((4-methylpiperazin-1-yl)methyl)-6′H-spiro[cyclohexane-1,9′-oxazolo[5,4-f]quinazolin]-7′(8′H)-one], the 50% inhibitory concentration (IC50) was in the range of 100 to 1000 nM.

In the case of `Cc1nc2cc(Cl)c3c(c2o1)C1(CCC(F)(F)CC1)NC(=O)N3` [Example 11, 5′-Chloro-4,4-difluoro-2′-methyl-6′H-spiro[cyclohexane-1,9′-oxazolo[5,4-f]quinazolin]-7′(8′H)-one], the 50% inhibitory concentration (IC50) fell in the range of 100 to 1000 nM. The same measure for `O=C1Nc2c(Cl)cc3ncoc3c2C2(CCCCC2)N1` [Example 13, 5′-Chloro-6′H-spiro[cyclohexane-1,9′-oxazolo[5,4-f]quinazolin]-7′(8′H)-one]: 100 to 1000 nM; for `Cc1nc2cc(Cl)c3c(c2o1)C1(CCCCC1)NC(=O)N3` [Example 14, 5′-Chloro-2′-methyl-6′H-spiro[cyclohexane-1,9′-oxazolo[5,4-f]quinazolin]-7′(8′H)-one]: 100 to 1000 nM; for `CCc1nc2cc(Cl)c3c(c2o1)C1(CCCCC1)NC(=O)N3` [Example 15, 5′-Chloro-2′-ethyl-6′H-spiro[cyclohexane-1,9′-oxazolo[5,4-f]quinazolin]-7′(8′H)-one]: 10 to 100 nM. The same measure for `CCCc1nc2cc(Cl)c3c(c2o1)C1(CCCCC1)NC(=O)N3` [Example 16, 5′-Chloro-2′-propyl-6′H-spiro[cyclohexane-1,9′-oxazolo[5,4-f]quinazolin]-7′(8′H)-one]: 10 to 100 nM; for `CC(C)c1nc2cc(Cl)c3c(c2o1)C1(CCCCC1)NC(=O)N3` [Example 17, 5′-Chloro-2′-isopropyl-6′H-spiro[cyclohexane-1,9′-oxazolo[5,4-f]quinazolin]-7′(8′H)-one]: 10 to 100 nM; for `O=C1Nc2c(Cl)cc3nc(C4CC4)oc3c2C2(CCCCC2)N1` [Example 18, 5′-Chloro-2′-cyclopropyl-6′H-spiro[cyclohexane-1,9′-oxazolo[5,4-f]quinazolin]-7′(8′H)-one]: 100 to 1000 nM.

`COCc1nc2cc(Cl)c3c(c2o1)C1(CCCCC1)NC(=O)N3` [Example 19, 5′-Chloro-2′-(methoxymethyl)-6′H-spiro[cyclohexane-1,9′-oxazolo[5,4-f]quinazolin]-7′(8′H)-one]: the IC50 is 10 to 100 nM. `O=C1Nc2c(Cl)cc3nc(CO)oc3c2C2(CCCCC2)N1` [Example 20, 5′-Chloro-2′-(hydroxymethyl)-6′H-spiro[cyclohexane-1,9′-oxazolo[5,4-f]quinazolin]-7′(8′H)-one]: the IC50 fell in the range of 10 to 100 nM. Consider `COCCc1nc2cc(Cl)c3c(c2o1)C1(CCCCC1)NC(=O)N3` [Example 21, 5′-Chloro-2′-(2-methoxyethyl)-6′H-spiro[cyclohexane-1,9′-oxazolo[5,4-f]quinazolin]-7′(8′H)-one], for which the IC50 lay in the range of 10 to 100 nM. `O=C1Nc2c(Cl)cc3nc(CCO)oc3c2C2(CCCCC2)N1` [Example 22, 5′-Chloro-2′-(2-hydroxyethyl)-6′H-spiro[cyclohexane-1,9′-oxazolo[5,4-f]quinazolin]-7′(8′H)-one]: the 50% inhibitory concentration (IC50) lay within 10 to 100 nM. The same measure for `CC(=O)Nc1nc2cc(Cl)c3c(c2o1)C1(CCCCC1)NC(=O)N3` [Example 23, N-(5′-Chloro-7′-oxo-7′,8′-dihydro-6′H-spiro[cyclohexane-1,9′-oxazolo[5,4-f]quinazolin]-2′-yl)acetamide]: 100 to 1000 nM; for `COCCN(CCOC)c1nc2cc(Cl)c3c(c2o1)C1(CCCCC1)NC(=O)N3` [Example 24, 2′-(Bis(2-methoxyethyl)amino)-5′-chloro-6′H-spiro[cyclohexane-1,9′-oxazolo[5,4-f]quinazolin]-7′(8′H)-one]: 100 to 1000 nM; for `NC(=O)c1nc2cc(Cl)c3c(c2o1)C1(CCCCC1)NC(=O)N3` [Example 25, 5′-Chloro-7′-oxo-7′,8′-dihydro-6′H-spiro[cyclohexane-1,9′-oxazolo[5,4-f]quinazoline]-2′-carboxamide]: 100 to 1000 nM.

`O=C1Nc2c(Cl)cc3cc(CO)oc3c2C2(CCCCC2)N1` [Example 26, 5′-Chloro-2′-(hydroxymethyl)-6′H-spiro[cyclohexane-1,9′-furo[2,3-f]quinazolin]-7′(8′H) one]: the IC50 lay in the range of 10 to 100 nM.

Regarding `O=C1Nc2c(Cl)cc3cc(C(=O)N4CCN(CCF)CC4)oc3c2C2(CCCCC2)N1` [Example 27, 5′-Chloro-2′-(4-(2-fluoroethyl)piperazine-1-carbonyl)-6′H-spiro[cyclohexane-1,9′-furo[2,3-f]quinazolin]-7′(8′H)-one], the IC50 was in the range of 10 to 100 nM. Turning to `CN(CCN(C)C(=O)c1cc2cc(Cl)c3c(c2o1)C1(CCCCC1)NC(=O)N3)Cc1ccccc1` [Example 28, N-(2-(Benzyl(methyl)amino)ethyl)-5′-chloro-N-methyl-7′-oxo-7′,8′-dihydro-6′H-spiro[cyclohexane-1,9′-furo[2,3-f]quinazoline]-2′-carboxamide], the half-maximal inhibitory concentration (IC50) was in the range of 10 to 100 nM. Regarding `CC(C)N1CCN(Cc2cc3cc(Cl)c4c(c3o2)C2(CCCCC2)NC(=O)N4)CC1` [Example 29, 5′-Chloro-2′-((4-isopropylpiperazin-1-yl)methyl)-6′H-spiro[cyclohexane-1,9′-furo[2,3-f]quinazolin]-7′(8′H)-one], the IC50 lay in the range of 100 to 1000 nM. Regarding `CC(C)n1cnnc1CN(C)Cc1cc2cc(Cl)c3c(c2o1)C1(CCCCC1)NC(=O)N3` [Example 30, 5′-Chloro-2′-((((4-isopropyl-4H-1,2,4-triazol-3-yl)methyl)(methyl)amino)methyl)-6′H-spiro[cyclohexane-1,9′-furo[2,3-f]quinazolin]-7′(8′H)-one], the half-maximal inhibitory concentration (IC50) is 10 to 100 nM. With `CN(C)Cc1nc2cc(Cl)c3c(c2o1)C1(CCCCC1)NC(=O)N3` [Example 31, 5-Chloro-2-[(dimethylamino)methyl]-7,8-dihydro-6H-spiro[[1,3]oxazolo[5,4-f]quinazoline-9,1′-cyclohexane]-7-one], the IC50 is 10 to 100 nM. Then `CN1CCN(Cc2nc3cc(Cl)c4c(c3o2)C2(CCCCC2)NC(=O)N4)CC1` [Example 32, 5-Chloro-2-[(4-methylpiperazin-1-yl)methyl]-7,8-dihydro-6H-spiro[[1,3]oxazolo[5,4-f]quinazoline-9,1′-cyclohexane]-7-one], with 100 to 1000 nM; and `O=C1Nc2c(Cl)cc3nc(CN4CCOCC4)oc3c2C2(CCCCC2)N1` [Example 33, 5-Chloro-2-(morpholin-4-ylmethyl)-7,8-dihydro-6H-spiro[[1,3]oxazolo[5,4-f]quinazoline-9,1′-cyclohexane]-7-one], with 100 to 1000 nM; and `O=C1Nc2c(Cl)cc3nc(CN4CCC(O)CC4)oc3c2C2(CCCCC2)N1` [Example 34, 5-Chloro-2-[(4-hydroxypiperidin-1-yl)methyl]-7,8-dihydro-6H-spiro[[1,3]oxazolo[5,4-f]quinazoline-9,1′-cyclohexane]-7-one], with 10 to 100 nM. As for `CNCc1nc2cc(Cl)c3c(c2o1)C1(CCCCC1)NC(=O)N3` [Example 35, 5-Chloro-2-[(methylamino)methyl]-7,8-dihydro-6H-spiro[[1,3]oxazolo[5,4-f]quinazoline-9,1′-cyclohexane]-7-one], the IC50 lay within 10 to 100 nM. Turning to `O=C1Nc2c(Cl)cc3nc(CNC4CC4)oc3c2C2(CCCCC2)N1` [Example 36, 5-Chloro-2-[(cyclopropylamino)methyl]-7,8-dihydro-6H-spiro[[1,3]oxazolo[5,4-f]quinazoline-9,1′-cyclohexane]-7-one], the IC50 lay within 10 to 100 nM.

In the case of `O=C1Nc2c(Cl)cc3nc(CN4CCCC4)oc3c2C2(CCCCC2)N1` [Example 38, 5-Chloro-2-(pyrrolidin-1-ylmethyl)-7,8-dihydro-6H-spiro[[1,3]oxazolo[5,4-f]quinazoline-9,1′-cyclohexane]-7-one], the half-maximal inhibitory concentration (IC50) lay within 10 to 100 nM.
